Assay results from PubChem BioAssay AID1159614 (National Center for Advancing Translational Sciences (NCATS), 2016).
Among all 45,000 compounds or so, about 65 (0.1%) were called active. The call rests on the fitted dose curve; in most records, active means well fitted activation curve with a large enough effect; inconclusive means small, poorly fitted or top-dose-only effect; inactive means no such curve, though single readings can be large or run the other way. Some of the results follow.

Target: Galactocerebrosidase (Homo sapiens) (UniProt P54803)
Assay: A Novel Cell-Based Assay to Identify Small Molecules for B -Galactocerebrosidase; further: 0% is about no effect; nearly all actives have a fitted effect of over 65% in size
Details: 145M-Twi-hGALC-G270D cells (Twitcher mouse brain line with human GALC G270D), HMU-beta-Gal fluorescence, 48 h; series mostly up to 57.5 µM; activation: at the top concentration
How it was run: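 Mutant human GALC (G270D), stably expressed in a Twitcher mouse brain cell line lacking endogenous GALC, is measured in live-treated cells via 6-hexadecanoylamino-4-methylumbelliferyl-β-galactoside hydrolysis (0.1 mM final, pH 5.2) with fluorescent detection.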

activation, inactive:
Cc1cccc(C(=O)Nc2nnc(S(=O)(=O)N3c4ccccc4CC3C)s2)c1 (configuration not stated) -7.04%, Cc1cc(O)c(CN2CCN(c3ccc(F)cc3)CC2)c2oc(=O)cc(C)c12 -22.7%, COCCCn1c(=N)c(C(=O)NC2CCCC2)cc2c(=O)n3cc(C)ccc3nc21 -3.72%, CCOc1ccc(-c2nnc(SCC(=O)NCCc3ccccc3)nc2-c2ccc(OCC)c(OC)c2)cc1OC -16.6%, CCCN(C(=O)Cn1nc(Cc2ccncc2)c2ccccc2c1=O)c1ccccc1C -10.2%, CC(=O)N1CCCc2cc(S(=O)(=O)N3CCCC(C(=O)Nc4ccc(C)c(C)c4)C3)ccc21 (configuration not stated) -8.29%, CC(C)(C)c1ccc(S(=O)(=O)Nc2ccc(O)c(Sc3nc4ccccc4s3)c2)cc1 -17.1%, CCOc1ccccc1NC(=O)c1cc(S(=O)(=O)NC2CCCC2)ccc1F 1.85%, Cc1ccc(C(=O)Nc2ccc3oc(-c4cccnc4)nc3c2)c(Cl)c1 -10.7%, COc1cccc(-c2cnc(NCc3ccccc3Cl)n2C)c1 -8.41%, Cc1coc2cc3oc(=O)c(CC(=O)NCc4ccccc4)c(C)c3cc12 -5.94%, Cc1ccc(S(=O)(=O)Nc2cc3c(cc2Cl)n(C)c(=O)c(=O)n3C)cc1 -11.6%, Cc1ccc(C)c(N2CCN(C(=O)c3cc4c(=O)n(Cc5cccs5)ccc4nc3C)CC2)c1 -17.6%, CCOc1ccc2nc(N3CCC(C(=O)Nc4c(C)cccc4C)CC3)sc2c1 -16.1%, Cc1ccc(-n2ncc(C(=O)N3CCC(c4ccccc4)C3)c2C2CCN(C(=O)OC(C)(C)C)CC2)cc1 (configuration not stated) -15.1%, CCCCOc1ccc(CNC(=O)c2ccc(NC(=O)N3CCSc4ncccc43)cc2)cc1 2.23%, CCOc1cc(NC(C)=O)ccc1C(=O)OC -16.3%, Cc1ccc(C)c(CN2C(=O)c3ccccc3S(=O)c3ccc(C(=O)N(C)Cc4ccccc4)cc32)c1 (configuration not stated) -8.41%, O=c1[nH]cc(F)c(=O)[nH]1 -12.8%, Cc1cccc(N2CCN(C(=O)C3CCN(S(=O)(=O)c4ccc5c(c4)oc(=O)n5C)CC3)CC2)c1C -41.8%, COC(=O)CCN(C(=O)c1c(C)oc2ncnc(N3CCOCC3)c12)c1ccccc1 -3.37%, O=c1c2c3c(sc2n(Cc2cc(=O)n4ccccc4n2)c(=O)n1-c1ccc(Cl)cc1)CCC3 -13%, Cc1cc(C)c2oc(C(=O)Nc3ccc(S(=O)(=O)N(C)c4ccccc4)cc3)cc(=O)c2c1 -13%, O=C(Nc1nc(-c2ccc(Br)cc2)ns1)c1ccccc1F -4.04%, CCCc1nn2c(C)c(-c3ccccc3)nc2s1 -1.84%, CS(=O)(=O)c1ccc([C@@H](O)[C@@H](CO)NC(=O)C(Cl)Cl)cc1 -14%, COC(=O)CSc1nnc2n(-c3ccccc3)c(=O)c3c4c(sc3n12)COC(C(C)C)C4 (configuration not stated) 4.33%
